Measured values taken from PubChem BioAssay AID624296 (National Center for Advancing Translational Sciences (NCATS), 2012).
About 9,900 (2.8%) of roughly 350,000 compounds were called active. The inconclusive results got no clear call from the source; some entries with a clear call stand among them for comparison. The call rests on the fitted dose curve; in most records, active means well fitted activation curve with a large enough effect; inconclusive means small, poorly fitted or top-dose-only effect; inactive means no such curve, though single readings can be large or run the other way. No potency is given beside an inconclusive call; the fits are too rough.

assay: A quantitative high throughput screen for small molecules that induce DNA re-replication in MCF 10a normal breast cells.; further: nearly all actives have a fitted effect of over 50% in size; settings: MCF 10A DNA re-replication, Hoechst nuclear intensity, 48 h; series mostly up to 46.1 µM
Potency means the concentration at half of the fitted maximal effect; tags describe the fitted curve by direction and shape.

SMILES	Potency
COC(=O)Nc1sccc1C(=O)Nc1sccc1C(=O)OC	inconclusive [activator, partial curve, poor fit]
O=C(OCc1ccccc1)/C(=C/c1ccccc1Cl)NC(=O)c1ccco1	inconclusive [activator, partial curve, poor fit]
O=S(=O)(O)NC1CCCCC1	inactive
S=C(NCCN(C1CCCCC1)C1CCCC1)Nc1cccc(Cl)c1	inconclusive [activator, single point]
COC(=O)c1ccc(Cn2nc(-c3ccc(C)c(C)c3)ccc2=O)cc1	inconclusive [activator, single point]
O=C(Nc1ccc2oc(-c3ccccc3Cl)nc2c1)c1cncc(Br)c1	active: 16.4 µM
C#CCn1cc(/C=N/NC(=O)COc2cccc3cccnc23)c2ccccc21	inconclusive [activator, single point]
NS(=O)(=O)c1cccc(NC(=O)c2cccc3c(Br)cccc23)c1	inconclusive [activator, single point]
Cc1cc(-c2ccc(N=Nc3c(S(=O)(=O)O)cc4cc(S(=O)(=O)O)cc(N)c4c3O)c(C)c2)ccc1N=Nc1c(S(=O)(=O)O)cc2cc(S(=O)(=O)O)cc(N)c2c1O	inactive
Cc1cc(NC(=S)N(Cc2ccc(Br)cc2)Cc2ccc(C(=O)O)cc2)ccc1Cl	inconclusive [activator, single point]
COc1ccc([C@H]2Cc3cc(O)cc(O)c3C(=O)O2)cc1O	inconclusive [activator, full curve, poor fit]
CCN=C1SC(CC(=O)Nc2sc3c(c2C#N)CCCC3)C(=O)N1CC (stereo not drawn)	inconclusive [activator, partial curve, poor fit]
COc1cc(C(=O)Nc2nc(-c3cc(C)ccc3C)c(C)s2)ccc1OCC(=O)Nc1ccc(F)cc1	inconclusive [activator, full curve]
CCOC(=O)C1CCN(C(=O)COC(=O)CNC(=O)c2ccc(C(C)(C)C)cc2)CC1	inactive
Cc1c(C(=O)Nc2nccs2)oc2ccc(Br)cc12	inconclusive [activator, single point]
CSc1ccc(S(=O)(=O)NCCOc2ccccc2C)cc1	inconclusive [activator, partial curve, poor fit]
CN(CC1CCCN(CCc2cccc(C(F)(F)F)c2)C1)C(=O)c1ccco1 (stereo not drawn)	inactive
CCC(=O)c1ccc(N2CCN(C(=O)Cc3ccccc3)CC2)c(F)c1	inactive
